B1: GBRAP_128_3603 (protein)
chain: AVEEARERAREAIEKIKESDDEEAKKIAKELAEWLLTKSLEEVKAAMEEIERRAPELSEEKLLILQDALHEAAKKASPEKQEVLLAAVGELGAEAYEKTE
B2: GBRAP_52_5850 (protein)
chain: MEEEAKKLAEELVKLKKEGKEEELEKKVKEIVETKSEEEIVEILKELAKIAKEVTPEEAEAIFEVAELLAREAEKAGFNEDELSYELALVGAAVYEAEQR
B3: GBRAP_139_3714 (protein)
chain: SHREELIEEARRIVREHRDDLEKLAEELAKLIAEADDENALAIARAAAEEMKDWSWEKWEKFIELLEKELKKLGFSEDDVLAIVGEMEAVYAKHELAKLE
B4: GBRAP_11_2897 (protein)
chain: EKEKLKEAAKLAEEAAALLEKLIKEGPDNEELRKKAEKALKELLELAKKYLDESDVELAENALELFKKAQEDPENAEEYLKQALAYVRVLAGQVLLRIEE
B5: GBRAP_11_2621 (protein)
chain: KKEILKKAAKLAEEAAKLAKKLLEEGVDNEELLEKLKKKLEELAKLTKEHFEPSEQKDVEIAKELFEESLKDKENAEKYMEELLASLRVLEGNYLLKIEE
B6: GBRAP_184_5047 (protein)
chain: KTFEETIRFSTLAELEAQLAALAERLKDFKGDLILLAEAEEFTPEMVETAVAALAAIKAAGYVTSVTLGLDGKMTEEVRDLAIELADRAGIKVVLALEEE
B7: GBRAP_160_4736 (protein)
chain: SEEIKKLVEEGKKELLEAVELSEDLSPEERAALFRGTAGEVLMDFIEDERMTDEMEDAAAEILDELVERLEAARDASLEEKKKIVEEMMERLEKELLKIA
B8: GBRAP_52_5989 (protein)
chain: MEEKAKKLAEELVKLMLEGKREEAEKKIKELVATLSEEELELIMKELAEMAKTADEEEIDAIVEIALMLGDAALEAGFDEAKVDDQIARVAAAAVEALKK
B9: GBRAP_139_3760 (protein)
chain: SKKEELEKLANETVEAAKNGDIEKIEKIAKEISKLSEEEIKEYIKILSEKSLSLTLEEIETIEEIITKTLLELRNNEDLATYAEGEFNGTLALVAYREEL
B10: GBRAP_184_5149 (protein)
chain: MTLRRSIDAKTVEEAVKQAEKVFKEAKAQGADLVLHIFLEGFSVEEVEELAKKVKELAKKYGLKNATIILHVDANEEEADKIIKAADEAGVRAVVALLEP
B11: GBRAP_52_5971 (protein)
chain: MLERARELVREALELMEAGREEEAERLMEEVAETWDDEELRVLVEAVAELAAELDEERAELLLEMAIRAEDVLLRLGRDEALANDLVAAAARAAVAKRQA
B12: GBRAP_11_2883 (protein)
chain: KKEKLKELAELAQQLADTTDALLAAGTDDAALRAQLTALLDKLAELTAKYADEASKKLVEIAKEEWAKAQADPANAAAHLQNLRATARVLAGQYLLELEE
B13: GBRAP_11_2718 (protein)
chain: RKEKLEELAKEAEELAKEVEKLIEEGPKPEELKELAKRVEELARKAKEAGVDEDIVETLEIAAEELKKAIEDPETVVEHLERAAAALRVAAGDLLLEAEE
B14: GBRAP_160_4061 (protein)
chain: SESLERLLKDVEEARERILEVLREEGAEAAIVMAAGEYGAVIMEAAEDENASDELVDDLAEVRDRLVAELEANRDASREELERIIERHAEEAKEIIKKHF
B15: GBRAP_184_5107 (protein)
chain: KTLVVTVEAATLEEARAQLRAAVAEAAAAGADLVVLLSLEGFSGEELVALVREFGEAARAAGVPRVTLGITNDLDEETVDRLVAVADELGVALVLAIPDK
B16: GBRAP_160_4588 (protein)
chain: MESLEKMKEIVREELEEAKEMIVGETAEQRATIVLGAGGEIVMELSENPEASDELEDEVLKIADEAADTILANPNITEEEFNALLDEMEKKMIEAIEKHL
B17: GBRAP_184_5320 (protein)
chain: KVIHKVIEVETEEEAIEKLEEVKKEAKETGEKYLVVVEIKNATEKKIEAIAEKIKEMKEEGLPIEVIVELLDEVDEELTDFAVEKMEEAGAKVVISLKDE
B18: GBRAP_128_3386 (protein)
chain: SQEEKLKEAKELIDKIVEADVETARVLTEELMELLKTLSLEDQEKVIEYFKSKLPELTAEKLDVVADVLREKRPEFDPESQNLIADAEVEALNAAEEKEE
B19: GBRAP_9_7152 (protein)
chain: MEELLEKVEEVIEDAFEEIKLVVPEEVKPLVDELREKAKERFEELRKDPNVTEEQIVEEAKKILEELEEELSKKVSPEIKKIVRAIVDTAKLEIEELREE
B20: GBRAP_11_2760 (protein)
chain: MKEKYLELAELAEEAAELVDKLLEEGVDNEELREELREKLKELKEKVEEIGDEALIKEVEIAEELFKEMEEDPENAEKYAKELRAALRVLAGQFLLEAEE
B21: GBRAP_153_3947 (protein)
chain: EEERKEKLEKAKKLIEKIKKSKDPTKYIKELAKLLSELNLEDKLEVAKEFNKLSEETVYKIFKTLATEEGFSVEELLELTTELNEEQQAAALKAIVDSQK
B22: GBRAP_35_5540 (protein)
chain: DADTTIAEMLVNTMEDLVLALPDVDDETKITLTNHLIRLAEDLVELKPKDVELIKRAIEVLERAIEIIEESDLPEETREELIERLEELREKLEEILKENE
B23: GBRAP_117_2594 (protein)
chain: SATLEEVRKRVEELVERIRKALEEMKTLSEEERKRLREELLEEATKEVKEMLKLTDAETVEEFFAEALADLSPEERVEAYIIFEEALADAEDELKEEEEA
B24: GBRAP_16_4993 (protein)
chain: DELLNKVEGILEFVEDVADAFKDIDKETAKLAKEAAEKLKKAAKLIKEGGPKEEVLKELEEAAKILKEAAKRYAKKDPEAAAIFETLLREVERAIKLAKE
B25: GBRAP_52_6088 (protein)
chain: SAAKLEKYADELLAAAVAGDLEKATALVKKLIEELTDEEVLEAFARLAKKIAALPPEERERALDVALEALSRAADETGKEELMDLAMARLAAEAHAAELA
B26: GBRAP_137_3611 (protein)
chain: KKITITFSEEDGVAFAEIEADESVDHEKLLELVEKVAEETGAKVVIAYSDENKELIIYLVGDRETIVKAVRKLIKRLKEELGAEVELRSDGAEDLVEAVK
B27: GBRAP_48_5828 (protein)
chain: MVLDLEKLRELVEETVEEMKELYEEAKEEGLSREDILKMVKAELGDLALELEEAGYTKAADYLLEKENRDKLAKKLVELLEEGKVEEAEKYLFEELLKAE
B28: GBRAP_186_5391 (protein)
chain: EEEEEEEEKLLKELEKEYDIVIVVYLDEKKSLEEKKKIMENDVKAAEALAKETGKKVAVLFRVTANEEELEELKKYAEELDKEAKEKSGVGVKLFGKKKK
B29: GBRAP_160_4776 (protein)
chain: SEKEEKLKKKIKEAKEEILESIDTLSPEETLTVAIGETGDIIMEAEELEFDNEELLDSIDEIMDELIEELEKNKNASPEEKKKIVEEKFEKLLKELEKLT

The full ranking holds about 4,500 sequences; the median of “median log2 fold change of GCK-ALFA target abundance (FLAG IP / Myc IP barcode read proportion)” is about 0.078, and the lowest 2% start at about -0.6. This is one part of the list.

From the supplement of paper PMC12632987 come the findings set out here.

GABARAP, O95166, sequence (O95166 whole entry, the tested form may be a part): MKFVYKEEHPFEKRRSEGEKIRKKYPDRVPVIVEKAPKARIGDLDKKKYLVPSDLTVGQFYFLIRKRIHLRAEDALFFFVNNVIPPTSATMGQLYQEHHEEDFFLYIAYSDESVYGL

The assay addresses GABARAP, O95166. Put plainly: median log2 fold change of GCK-ALFA target abundance (FLAG IP / Myc IP barcode read proportion) (log2 ratio); each designed protein is fused to an ALFA-tag nanobody in HEK293 cells to bring the named protein to FLAG-tagged glucokinase (GCK); Myc marks an untargeted standard; higher = target protein stabilised (more abundant). The following applies: target protein: 3xFLAG-MCP-GCK-ALFA reporter; HEK293 landing pad (RPLP). In outline: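 Binders fused to an ALFA nanobody were recombined as a library into HEK293 landing-pad cells, which were induced with 2 μg mL^−1 doxycycline and then transfected to express a FLAG-tagged target and a Myc-tagged standard. After 48 h, circular RNA barcodes recovered by anti-FLAG and anti-Myc immunoprecipitation of lysates were reverse transcribed, amplified and sequenced. Each binder's target abundance is the median log2 ratio of FLAG to Myc barcode read proportions, from barcodes present at ≥10^−7 in both replicates, binders carrying ≥3 barcodes per replicate, a 10^−6 pseudocount and pooled replicates.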
Consider B1, for which the “median log2 fold change” value was 0.311.
Regarding B2, the “median log2 fold change” value stood at 0.153.
The figure for B3 is -0.0672; for B4 it is 0.204; for B5 it is 0.435.
B6: the “median log2 fold change” value amounted to 0.0653.
For the molecule B7, the “median log2 fold change” value came out at 0.19.
In the case of B8, the “median log2 fold change” value is -0.158.
The figure for B9 is -0.0583; for B10 it is -0.0639.
The figure for B11 is 0.0201; for B12 it is 0.336.
For B13, the “median log2 fold change” value amounted to 0.201.
The figure for B14 is 0.104; for B15 it is -0.131; for B16 it is -0.211.
As to B17, the “median log2 fold change” value worked out at 0.193.
The figure for B18 is 0.268; for B19 it is 0.149.
Consider B20, for which the “median log2 fold change” value amounted to 0.142.
The figure for B21 is 0.0929.
As for B22, the “median log2 fold change” value was -0.0575.
The result for B23 reads 0.152.
With B24, the “median log2 fold change” value was -0.0973.
Consider B25, for which the “median log2 fold change” value stood at 0.221.
The result for B26 reads -0.109; that for B27, 0.0841; that for B28, 0.615.
For B29, the “median log2 fold change” value is 0.018.
